# The shares of active, inactive and inconclusive entries below differ from those in the screen. For some assays here: Potencies of inconclusive entries are left out as doubtful fits. Some structures have more than one record in an assay (separate samples or runs), and their calls can disagree. Activity calls are given as the source filed them. Unless noted, the call rests on the fitted dose curve; in most records, active means well fitted curve in the direction sought with a large enough effect; inconclusive means small, poorly fitted or top-dose-only effect, or another doubt; inactive means no such curve, though single readings can be large; an effect the other way counts as inactive or inconclusive.
# Experiments:
# [1] = qHTS for differential inhibitors of proliferation of Plasmodium falciparum line D10 (AID 1877);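 further: potency means the concentration at half of the fitted maximal effect; parasites grown with compound for 72 h before DNA staining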
# [2] = molecular target: Tyrosine-protein phosphatase non-receptor type substrate 1 (Homo sapiens) + Leukocyte surface antigen CD47 (Homo sapiens) (UniProt P78324+Q08722); experiment: CD47-SIRPalpha protein protein interaction - HTRF assay qHTS validation (AID 1347058; active means well fitted curve in the direction sought with a large enough effect in the signal ratio, not every such curve was filed as active; inconclusive means small, poorly fitted or top-dose-only effect, or effect the other way, or a change in a side signal; inactive means no such curve, though single readings can be large or run the other way; the % refers to the signal ratio;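 further: recombinant soluble extracellular CD47 with His tag and biotinylated SIRPalpha domains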)
# Procedure, shortened: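 TR-FRET read (Ch1/Ch2 ratio) of soluble extracellular CD47 and Avi-biotinylated SIRPalpha domains in PBS pH 7.4 with 0.05% IGEPAL; 7-point compound titration. Sequential 30 min room-temperature steps; non-biotinylated SIRPalpha as control inhibitor.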
# [3] = qHTS to identify inhibitors of the type 1 interferon - major histocompatibility complex class I in skeletal muscle: primary screen against the NCATS Pharmaceutical Collection (AID 1347407); conditions: human skeletal muscle cells, IFN-b-induced MHC-I HiBiT luminescence, 24 h; activity change, negative = inhibition: at 45.9 µM (top of the series);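 further: luminescence of HiBiT knocked into endogenous HLA-B as interferon-induced MHC class I level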; further: potency means the concentration at half of the fitted maximal effect
# Procedure, shortened: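 Luminescence from HiBiT-tagged endogenous HLA-B*08:01 served as the read-out of IFN-beta-induced MHC class I in CRISPR-engineered C25cl48 myoblasts. Cells received 4 ng/ml IFN-beta plus compound (high final 46 uM, […]) for 24 h.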
# [4] = qHTS to identify inhibitors of the type 1 interferon - major histocompatibility complex class I in skeletal muscle: primary screen against the NCATS LOPAC collection (AID 1347405); conditions: iHSKM muscle cells, IFN-b-induced MHC-I HiBiT luminescence, 24 h; activity change, negative = inhibition: at 45.9 µM (top of the series);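 further: lytic HiBiT luminescence reporting HLA-B protein level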; further: potency means the concentration at half of the fitted maximal effect
# Procedure, shortened: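 Cells: C25cl48 human myoblasts, HiBiT-tagged HLA-B*08:01, stimulated with IFN-beta 4.0 ng/ml. Compounds are titrated 1:4.3 over 7 points from 46 uM final and incubated 24 hrs; endogenous MHC class I is quantified by HiBiT lytic luminescence.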
# Papain (Carica papaya) = Papain (Carica papaya) (UniProt P00784); experiment: Primary qHTS assay for inhibitors of the protease papain (AID 1645873);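 further: papain turnover of Z-FR-AMC read as the AMC fluorescence gain over 10 min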; further: potency means the concentration at half of the fitted maximal effect
# [5] = molecular target: Cytochrome P450 3A4 (Homo sapiens) (UniProt P08684); experiment: qHTS Assay for Inhibitors and Substrates of Cytochrome P450 3A4 (AID 884); further: potency means the concentration at half of the fitted maximal effect; nearly all actives have a fitted effect of over 50% in size
# Procedure, shortened: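 20 nM human CYP3A4 with 25 uM Luciferin-PPXE (at KM) in 200 mM KPO4, preincubated 10 min with compound; NADPH regeneration started a 60 min RT reaction. Luciferin detected by luminescence, normalized to 57 uM ketoconazole as full inhibition.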
# [6] = Cytometry Cell-Based qHTS for Inhibitors of the mTORC1 Signaling Pathway in MEF cells (AID 2668); further: potency means the concentration at half of the fitted maximal effect
# Procedure, shortened: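 Tsc2-/-, p53-/- MEFs re-expressing WT Tsc2; cpd 24 hrs, 37 degree Celsius; PFA fix, Alexa-488 p-rpS6 (Ser235/236) Ab 2 hrs RT, PI counterstain; Acumen 488nm scan; p-S6/PI ratio → % positive cells; PI count = viability.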
# [7] = Validation screen for small molecules that induce DNA re-replication in MCF 10A normal breast cells (AID 463097); further: potency means the concentration at half of the fitted maximal effect; nearly all actives have a fitted effect of over 60% in size
# Procedure, shortened: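 Image-based qHTS: normal breast cells are incubated with compound for 48 hr, stained with Hoechst, and scanned for total nuclear fluorescence. Compounds raising the fraction of nuclei with elevated DNA content count as re-replication inducers.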
# [8] = molecular target: M-phase phosphoprotein 8 (Homo sapiens) (UniProt Q99549); experiment: qHTS Validation Assay for Inhibitors for MPP8 Chromodomain Interactions with Methylated Histone Tails (AID 488949); further: nearly all actives have a fitted effect of over 55% in size; further: potency means the concentration at half of the fitted maximal effect;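 on activity change, negative = inhibition: 50 nM MPP8 with 50 nM peptide preformed then compounds added for 30 min; AlphaScreen signal from MPP8 chromodomain bound to biotinylated H3K9me3 peptide; top concentration of the series differs between compounds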
# Procedure, shortened: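 50 nM MPP8 + 50 nM b-H3K9me3 peptide, PBS pH 7.4/0.01% Tween-20, 30 min RT; + cpd 30 min RT; + AlphaScreen donor/Ni-chelate acceptor beads 10 ug/mL final, 30 min dark; luminescence read.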
# [9] = molecular target: ATPase family AAA domain-containing protein 5 (Homo sapiens) (UniProt Q96QE3); experiment: Validation screen for small molecules that inhibit ELG1-dependent DNA repair in human embryonic kidney (HEK293T) cells expressing luciferase-tagged ELG1 (AID 493107); further: potency means the concentration at half of the fitted maximal effect; nearly all actives have a fitted effect of over 70% in size
# Procedure, shortened: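 Quantitative HTS in HEK293T cells carrying luciferase-tagged ELG1, stimulated with 5-fluorouridine alongside compound for 16 hr. Loss of luciferase signal marks inhibition of ELG1 response.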
# [10] = molecular target: Atrial natriuretic peptide receptor 1 (Homo sapiens) (UniProt P16066); experiment: Natriuretic polypeptide receptor (hNpr1) antagonism - Pilot screen (AID 1347049; calls by dose curve;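 further: agonist-evoked cGMP luminescence read 20 min after hNppA addition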; further: potency means the concentration at half of the fitted maximal effect)
# Procedure, shortened: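 HEK293 cells co-expressing hNpr1 and the GloSensor pGS-40F cGMP luciferase sensor were preloaded with 2% GloSensor reagent for 2 h. Compounds were added for 30 min at room temperature, then cells were stimulated with 0.1 nM hNppA for 20 min before luminescence readout.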
# C33A = experiment: Primary qHTS to identify gynecologic anti-cancer compounds using libraries of approved drugs and bioactive compounds (AID 1345084); conditions: Gynecologic cancer cell panel viability, ATPlite luminescence, 48 h; series mostly up to 57.5 µM; further: nearly all actives have a fitted effect of over 55% in size; further: potency means the concentration at half of the fitted maximal effect
# Procedure, shortened: (§1)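 Cell viability after 48 h drug treatment, ATPlite luminescence readout; five doses.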
# CAOV3 = experiment: as above; conditions: Gynecologic cancer cell panel viability, ATPlite luminescence, 48 h; activity change, negative = cytotoxicity: at 57.5 µM (top of the series)
# Procedure, shortened: as §1
# Es-2 = experiment: as above; conditions: Gynecologic cancer cell panel viability, ATPlite luminescence, 48 h; series mostly up to 57.5 µM
# Procedure, shortened: as §1
# HeLa = experiment: as above; conditions: Gynecologic cancer cell panel viability, ATPlite luminescence, 48 h; activity change, negative = cytotoxicity: at 57.5 µM (top of the series)
# Procedure, shortened: as §1
# [11] = Quantitative High-Throughput drug screen in 47 multiple myeloma cell lines against the NCATS MIPE library collection: OCIMY1_PLB cell viability assay (AID 1918979); further: potency means the concentration at half of the fitted maximal effect; nearly all actives have a fitted effect of over 35% in size
# Procedure, shortened: (§2)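 Myeloma cells (500/well) treated with MIPE 4.0 compounds for 48 h at 37 °C, 5% CO2. Viability read as ATP via CellTiter-Glo luminescence after 5 min at RT; DMSO-only wells = 100%, media-only = 0% viability.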
# [12] = Quantitative High-Throughput drug screen in 47 multiple myeloma cell lines against the NCATS MIPE library collection: LP1_DSMZ cell viability assay (AID 1918982); further: potency means the concentration at half of the fitted maximal effect; nearly all actives have a fitted effect of over 35% in size
# Procedure, shortened: as §2
# [13] = Quantitative High-Throughput drug screen in 47 multiple myeloma cell lines against the NCATS MIPE library collection: KMS28BM_JCRB cell viability assay (AID 1919874); further: potency means the concentration at half of the fitted maximal effect; nearly all actives have a fitted effect of over 35% in size
# Procedure, shortened: as §2
# [14] = qHTS for identification of novel therapeutic agents for treatment of microphthalmiaassociated transcription factor (MiT) renal cell carcinoma (RCC) (AID 1963991; calls by dose curve; further: potency means the concentration at half of the fitted maximal effect); conditions: TFE3-RCC UOK109 viability, CellTiter-Glo, 48 h; active = Z-AUC below -0.8 in all three lines
# Procedure, shortened: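 Three TFE3-fusion RCC cell lines (UOK109, UOK124, UOK145), 500 cells/well, were exposed to the 1912-compound MIPE 4.0 library for 48 hours at 37 C. Viability was read by CellTiter-Glo luminescence, normalised to DMSO (100%) and empty wells (0%), with 11-concentration curve fits.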
# MKL-1 = experiment: qHTS assay to identify novel small-molecules to repurpose for Merkel cell carcinoma treatment (AID 1296009); conditions: MCC and control cell lines, CellTiter-Glo viability, 72 h; activity change, negative = cytotoxicity: at 46 µM (top of the series); further: potency means the concentration at half of the fitted maximal effect; nearly all actives have a fitted effect of over 60% in size
# Procedure, shortened: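 Cells exposed to NPC (8-point) and MIPE (11-point) compound dilutions for 72 hr at 37 degree celsius; viability read by CellTiter-Glo luminescence, normalized to no-cell and DMSO in-plate controls.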
# Tags describe the fitted curve by direction and shape.
# Chain of UniProt Q99549 (Q99549 whole entry, looked up): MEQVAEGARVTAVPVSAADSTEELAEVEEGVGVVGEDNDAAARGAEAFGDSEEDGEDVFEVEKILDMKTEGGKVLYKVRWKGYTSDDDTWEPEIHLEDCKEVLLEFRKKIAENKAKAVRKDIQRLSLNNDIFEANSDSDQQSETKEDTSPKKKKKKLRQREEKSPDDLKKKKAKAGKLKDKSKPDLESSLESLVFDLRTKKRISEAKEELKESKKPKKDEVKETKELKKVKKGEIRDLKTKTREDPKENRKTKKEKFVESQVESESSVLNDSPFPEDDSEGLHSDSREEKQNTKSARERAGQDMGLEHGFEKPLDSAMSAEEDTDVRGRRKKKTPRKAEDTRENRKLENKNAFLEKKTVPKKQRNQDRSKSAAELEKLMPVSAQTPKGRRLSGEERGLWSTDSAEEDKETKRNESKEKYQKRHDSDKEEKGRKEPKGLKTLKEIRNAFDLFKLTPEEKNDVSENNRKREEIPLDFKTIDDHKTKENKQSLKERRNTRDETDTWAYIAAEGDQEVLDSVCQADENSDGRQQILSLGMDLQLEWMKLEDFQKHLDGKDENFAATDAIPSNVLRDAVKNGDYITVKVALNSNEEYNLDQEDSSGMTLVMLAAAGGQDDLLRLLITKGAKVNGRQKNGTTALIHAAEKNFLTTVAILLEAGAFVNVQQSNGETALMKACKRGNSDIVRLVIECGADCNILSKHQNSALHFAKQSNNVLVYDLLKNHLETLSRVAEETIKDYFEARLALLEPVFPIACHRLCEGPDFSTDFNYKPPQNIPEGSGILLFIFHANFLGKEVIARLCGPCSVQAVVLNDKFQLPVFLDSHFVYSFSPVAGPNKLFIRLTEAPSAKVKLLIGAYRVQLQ
# Chain of UniProt P08684 (P08684 whole entry, looked up): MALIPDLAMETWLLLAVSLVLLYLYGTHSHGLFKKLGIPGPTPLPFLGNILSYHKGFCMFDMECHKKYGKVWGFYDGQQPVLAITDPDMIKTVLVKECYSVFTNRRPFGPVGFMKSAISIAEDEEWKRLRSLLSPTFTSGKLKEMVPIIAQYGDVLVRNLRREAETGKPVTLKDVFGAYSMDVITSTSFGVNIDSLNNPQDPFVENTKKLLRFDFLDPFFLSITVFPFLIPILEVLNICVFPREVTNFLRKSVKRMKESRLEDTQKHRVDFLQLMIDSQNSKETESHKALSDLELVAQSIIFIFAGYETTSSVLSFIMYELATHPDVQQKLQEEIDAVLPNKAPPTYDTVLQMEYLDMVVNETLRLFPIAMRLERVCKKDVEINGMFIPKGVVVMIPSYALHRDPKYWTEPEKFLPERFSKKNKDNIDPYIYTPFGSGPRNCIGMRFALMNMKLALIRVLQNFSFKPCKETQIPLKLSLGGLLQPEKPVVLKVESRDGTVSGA
# Chain of UniProt P00784 (P00784 whole entry, looked up): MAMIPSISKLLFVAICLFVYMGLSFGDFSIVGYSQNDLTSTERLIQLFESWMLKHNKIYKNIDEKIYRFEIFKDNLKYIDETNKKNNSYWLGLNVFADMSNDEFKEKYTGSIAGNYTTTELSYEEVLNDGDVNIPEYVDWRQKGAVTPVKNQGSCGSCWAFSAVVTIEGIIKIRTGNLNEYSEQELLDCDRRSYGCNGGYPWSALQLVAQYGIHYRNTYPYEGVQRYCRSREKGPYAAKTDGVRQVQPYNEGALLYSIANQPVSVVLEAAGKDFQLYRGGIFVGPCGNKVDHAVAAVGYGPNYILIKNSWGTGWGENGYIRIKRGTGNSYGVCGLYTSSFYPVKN
# Chain of UniProt P16066 (P16066 whole entry, looked up): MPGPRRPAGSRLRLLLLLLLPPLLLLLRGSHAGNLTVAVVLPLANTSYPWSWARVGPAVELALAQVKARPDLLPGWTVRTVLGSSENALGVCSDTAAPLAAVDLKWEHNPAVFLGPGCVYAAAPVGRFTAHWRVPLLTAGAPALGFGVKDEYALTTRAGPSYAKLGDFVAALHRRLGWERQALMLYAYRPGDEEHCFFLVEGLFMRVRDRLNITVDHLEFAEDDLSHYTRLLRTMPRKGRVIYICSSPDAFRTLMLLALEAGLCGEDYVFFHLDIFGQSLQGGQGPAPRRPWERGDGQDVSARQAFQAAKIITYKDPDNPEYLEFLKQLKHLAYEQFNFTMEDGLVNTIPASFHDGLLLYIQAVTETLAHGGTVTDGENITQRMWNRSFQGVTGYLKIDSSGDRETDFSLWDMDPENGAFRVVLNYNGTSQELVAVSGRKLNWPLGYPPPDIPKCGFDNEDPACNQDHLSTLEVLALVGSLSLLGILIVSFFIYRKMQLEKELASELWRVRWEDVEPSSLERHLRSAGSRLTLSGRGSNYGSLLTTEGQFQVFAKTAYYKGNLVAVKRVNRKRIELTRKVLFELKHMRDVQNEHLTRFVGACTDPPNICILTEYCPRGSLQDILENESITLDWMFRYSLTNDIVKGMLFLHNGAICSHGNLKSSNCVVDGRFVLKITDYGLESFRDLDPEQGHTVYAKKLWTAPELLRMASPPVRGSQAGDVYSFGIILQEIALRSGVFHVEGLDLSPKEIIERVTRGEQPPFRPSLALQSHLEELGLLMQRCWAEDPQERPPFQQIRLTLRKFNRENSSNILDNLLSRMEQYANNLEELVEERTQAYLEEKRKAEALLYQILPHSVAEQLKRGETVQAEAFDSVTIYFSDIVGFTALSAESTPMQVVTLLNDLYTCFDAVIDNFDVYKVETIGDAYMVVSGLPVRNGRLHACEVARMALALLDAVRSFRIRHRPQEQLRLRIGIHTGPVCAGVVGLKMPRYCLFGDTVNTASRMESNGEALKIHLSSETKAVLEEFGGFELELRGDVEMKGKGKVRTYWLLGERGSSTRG
# Chain of UniProt Q96QE3 (Q96QE3 whole entry, looked up, the tested form may be a part): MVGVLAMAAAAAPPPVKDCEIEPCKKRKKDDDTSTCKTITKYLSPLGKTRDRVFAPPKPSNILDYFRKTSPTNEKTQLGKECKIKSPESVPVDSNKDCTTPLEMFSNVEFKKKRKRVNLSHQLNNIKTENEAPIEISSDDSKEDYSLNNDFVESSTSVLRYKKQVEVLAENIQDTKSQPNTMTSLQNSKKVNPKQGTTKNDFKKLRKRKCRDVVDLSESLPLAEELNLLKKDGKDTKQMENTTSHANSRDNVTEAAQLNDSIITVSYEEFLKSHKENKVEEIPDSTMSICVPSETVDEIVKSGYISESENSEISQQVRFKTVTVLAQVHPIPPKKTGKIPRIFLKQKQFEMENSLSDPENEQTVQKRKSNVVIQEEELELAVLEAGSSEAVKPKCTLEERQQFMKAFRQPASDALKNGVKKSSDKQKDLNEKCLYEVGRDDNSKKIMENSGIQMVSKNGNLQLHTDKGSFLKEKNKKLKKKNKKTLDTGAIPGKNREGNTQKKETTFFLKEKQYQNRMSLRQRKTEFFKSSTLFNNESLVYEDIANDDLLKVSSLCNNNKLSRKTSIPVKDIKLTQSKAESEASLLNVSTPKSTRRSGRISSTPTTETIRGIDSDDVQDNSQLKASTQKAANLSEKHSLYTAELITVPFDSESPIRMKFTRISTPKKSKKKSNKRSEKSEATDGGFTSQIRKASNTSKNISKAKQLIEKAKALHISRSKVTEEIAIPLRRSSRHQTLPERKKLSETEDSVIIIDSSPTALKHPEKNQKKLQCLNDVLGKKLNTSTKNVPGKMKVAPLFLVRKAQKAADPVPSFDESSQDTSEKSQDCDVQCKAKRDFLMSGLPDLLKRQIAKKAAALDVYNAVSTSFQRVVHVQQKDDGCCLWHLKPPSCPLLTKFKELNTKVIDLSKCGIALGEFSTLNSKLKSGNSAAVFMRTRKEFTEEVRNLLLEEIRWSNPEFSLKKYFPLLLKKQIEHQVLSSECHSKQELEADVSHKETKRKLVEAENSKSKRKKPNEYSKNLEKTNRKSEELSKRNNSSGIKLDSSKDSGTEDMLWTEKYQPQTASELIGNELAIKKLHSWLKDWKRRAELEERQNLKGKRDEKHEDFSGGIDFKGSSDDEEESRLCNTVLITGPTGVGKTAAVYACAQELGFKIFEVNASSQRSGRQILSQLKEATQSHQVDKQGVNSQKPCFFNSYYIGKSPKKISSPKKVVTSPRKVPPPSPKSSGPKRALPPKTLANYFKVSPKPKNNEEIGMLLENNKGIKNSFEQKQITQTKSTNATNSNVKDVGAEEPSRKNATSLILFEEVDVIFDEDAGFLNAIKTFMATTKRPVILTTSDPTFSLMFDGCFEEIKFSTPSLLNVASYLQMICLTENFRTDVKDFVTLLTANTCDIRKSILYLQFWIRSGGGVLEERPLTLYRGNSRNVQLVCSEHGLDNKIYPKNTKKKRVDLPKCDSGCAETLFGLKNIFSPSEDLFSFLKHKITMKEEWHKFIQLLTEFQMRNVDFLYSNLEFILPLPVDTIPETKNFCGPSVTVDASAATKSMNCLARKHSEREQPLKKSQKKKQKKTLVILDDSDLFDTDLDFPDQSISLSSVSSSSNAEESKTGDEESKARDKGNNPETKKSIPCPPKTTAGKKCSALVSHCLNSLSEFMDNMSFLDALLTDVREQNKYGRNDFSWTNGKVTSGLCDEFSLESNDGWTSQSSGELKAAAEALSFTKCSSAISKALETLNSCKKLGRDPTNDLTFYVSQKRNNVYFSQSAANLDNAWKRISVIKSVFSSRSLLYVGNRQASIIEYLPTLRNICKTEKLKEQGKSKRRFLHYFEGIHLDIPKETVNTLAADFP
smiles,measurement,setting,value
O=C1CCc2cc(OCCCCc3nnnn3C3CCCCC3)ccc2N1,Potency,[1],"inconclusive [inhibitor, partial curve]"
same,Potency,[2],inactive
Cn1c(=O)c2c(ncn2CCO)n(C)c1=O,Potency,[3],inactive
CC(=O)c1ccc(S(=O)(=O)NC(=O)NC2CCCCC2)cc1,Potency,[4],inactive
same,Potency,Papain (Carica papaya),inactive
CC(C)N(CCC(=O)c1ccc2ccccc2c1)Cc1ccccc1,Potency,[5],"inconclusive [inhibitor, full curve]"
same,Potency,[6],"inconclusive [falling, partial curve]"
same,Potency,[7],active: 3.55 µM
same,Potency,[8],active: 28.2 µM and inactive
same,Potency,[9],"inconclusive [inhibitor, single point]"
same,Potency,[10],active: 13.5 µM
same,Potency,[4],active: 12.6 µM
same,Potency,Papain (Carica papaya),"inconclusive [inhibitor, full curve]"
Cc1ccccc1CN1C2=NCCN2C(=O)C2=C1CCN(Cc1ccccc1)C2,Potency,[5],"inconclusive [inhibitor, partial curve]"
CNC(=O)c1ccccc1Nc1nc(Nc2ccc3c(c2OC)CCC[C@@H](N2CCN(CCO)CC2)C3)ncc1Cl,Potency,C33A,"inconclusive [cytotoxic, single point]"
same,Potency,CAOV3,"inconclusive [cytotoxic, partial curve, poor fit]"
same,Potency,Es-2,"inconclusive [cytotoxic, single point]"
same,Potency,HeLa,"inconclusive [cytotoxic, full curve]"
O=C(O)C[C@H](O)C[C@H](O)C=Cc1c(C2CC2)nc2ccccc2c1-c1ccc(F)cc1,Potency,[11],inconclusive
same,Potency,[12],"inconclusive [cytotoxic, partial curve]"
same,Potency,[13],"inconclusive [cytotoxic, partial curve]"
same,Potency,[14],"inconclusive [falling, full curve]"
same,Potency,MKL-1,active: 5.9 µM
COC1C=C([C@@H]2CC=C3[C@@]4(C)C(CC[C@]32C)[C@@]2(C)C=CC(=O)C(C)(C)C2C[C@H]4OC(C)=O)C(=O)O1 (stereo partly drawn),Potency,CAOV3,"inconclusive [rising, partial curve, poor fit]"
CCOC(=O)N1CCC(=C2c3ccc(Cl)cc3CCc3cccnc32)CC1,Potency,[6],"inconclusive [falling, single point]"
same,Potency,[7],"inconclusive [activator, single point]"
same,Potency,[8],"inconclusive [inhibitor, full curve]"
same,Potency,[9],"inconclusive [inhibitor, single point]"
same,Potency,[10],inactive
same,Potency,[3],"inconclusive [inhibitor, single point]"
same,Potency,[11],"inconclusive [cytotoxic, single point]"
same,Potency,[12],"inconclusive [cytotoxic, partial curve]"
same,Potency,[13],active: 23.5 µM
same,Potency,[14],"inconclusive [falling, single point]"
same,Potency,Es-2,"inconclusive [cytotoxic, single point]"
same,Potency,HeLa,"inconclusive [cytotoxic, single point]"
same,Potency,MKL-1,"inconclusive [inhibitor, single point]"
CC1=CC2/C=C(\C)CC[C@@H](O)[C@@H](O)[C@@H]3O[C@@H]3C(=O)[C@]23C(=O)N[C@@H](CC(C)C)[C@@H]3[C@@H]1C (stereo partly drawn),Potency,C33A,inactive
